# From PubChem BioAssay AID686979 (National Center for Advancing Translational Sciences (NCATS), 2013)
# “And” between values parts separate entries of the source, which are not always exact repeats. Equal entries are not always repeated. About 50,000 (12%) of roughly 420,000 compounds were called active. Inconclusive results, whose numbers are uncertain, are shown with a selection of clear calls. Calls come from the whole dose curve; as a rule, active = well fitted inhibition curve with a large enough effect; inconclusive = small, poorly fitted or top-dose-only effect; inactive = flat fitted curve, though single readings scatter. Potencies of inconclusive entries are left out as doubtful fits.
# Assay: qHTS for Inhibitors of human tyrosyl-DNA phosphodiesterase 1 (TDP1): qHTS in cells in presence of CPT; note: nearly all actives have a fitted effect of over 55% in size
# Conditions: chicken DT40 Tdp1-/-;hTDP1 cells + 20 nM CPT, ATP luminescence, 48 h; activity change, negative = growth inhibition: at 46.2 µM (top of the series) unless noted
# In short: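 Cell growth measured by CellTiter-Glo luminescence after a minimum 48 h, 37 C compound exposure with 20 nM CPT in Tdp1-knockout DT40 cells stably expressing hTDP1, seeded 400/well; qHTS titration format.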
# % is set by controls: 0 for no effect and ±100 for the full control effect; potency is the fitted concentration of half-maximal effect; tags give direction and shape of the fitted curve.
Structure (SMILES),Potency,"activity change, negative = growth inhibition"
Cc1ccc2oc(C(=O)N3CCN(Cc4nccn4C)CC3)c(C)c2c1,inactive,–
COc1cc(OC)c(OC)cc1/C=C1\C=Cc2ccccc21,"inconclusive [inhibitor, single point]",–
Cc1cc(C)nc(N2C(=O)CC(C(C)c3ccccc3)C2=O)n1 (configuration not stated),inactive,–
Cc1c(CCO)sc[n+]1CC(=O)c1ccc(F)cc1,inactive,–
CCOCCCNC(=O)/C(C#N)=C/c1ccc(-c2ccc(S(=O)(=O)N3CCOCC3)cc2)o1,active: 11.6 µM,–
O=C1COc2ccc(C(=O)COC(=O)CCSc3ccc(Cl)cc3)cc2N1,inactive,–
Nc1nonc1-n1nnc(C(=O)N/N=C/c2ccc(Br)cc2)c1-c1ccc2c(c1)OCO2,"inconclusive [inhibitor, single point]",–
O=C(Nc1cccnc1)C1Cc2c(-c3ccccc3Oc3ccccc3)ccnc2O1 (configuration not stated),"inconclusive [inhibitor, single point]",–
CNC(=O)NC(=O)C(C)OC(=O)c1c2c(nc3ccccc13)/C(=C/c1cccs1)CC2 (configuration not stated),active: 20.6 µM,–
Clc1ccccc1OCc1nc(-c2ccccn2)no1,inactive,–
CCOc1ccc(CC(=O)Nc2c(C(=O)c3ccc(F)cc3)oc3ccccc23)cc1OCC,"inconclusive [inhibitor, single point]",–
COc1ccc(C(=O)NCC(=O)OCc2c(Cl)cccc2Cl)cc1OC,"inconclusive [inhibitor, single point]",–
CN1[C@@H]2CC[C@H]1CC(OC(c1ccccc1)c1ccccc1)C2 (some centres not stated),active: 6.68 µM and active: 7.5 µM,–
COc1cc(C(=O)O/N=C2\C=CC(=O)C=C2C)cc(OC)c1OC,active: 11.6 µM,–
COc1ccc(-c2cnnc(N/N=C/c3ccc(C)o3)n2)cc1,"inconclusive [inhibitor, single point]",–
COc1ccc(OC)c(NC(=O)c2cc(-c3ccc(C)cc3O)n[nH]2)c1,inactive,–
CCCc1nnc(SCC(=O)Nc2ccc(C(=O)OCC)cc2)o1,active: 23.1 µM,–
O=C(c1ccc2noc(-c3ccccc3)c2c1)N1CCN(c2ccccc2)CC1,"inconclusive [inhibitor, single point]",–
O=C(CNS(=O)(=O)c1ccc(Br)s1)N1CCN(c2ncccn2)CC1,inactive,–
CC12CCC3c4ccc(OCc5ccccc5)cc4CCC3C1CC(O)C2O (configuration not stated),"inconclusive [inhibitor, single point]",–
CCCCn1c(SCc2nc(N)nc(Nc3ccccc3C)n2)nc2ccccc2c1=O,"inconclusive [inhibitor, single point]",–
COc1cc(C(CC(=O)N2CCCC2)c2c(OC)cc(OC)c3c(-c4ccccc4)cc(=O)oc23)cc(OC)c1OC (configuration not stated),"inconclusive [inhibitor, single point]",–
Cc1ccc2c(c1)C(=O)C(=O)N2CCOc1ccccc1,active: 0.58 µM,–

Structure (SMILES),Potency,"activity change, negative = growth inhibition"
Cc1ccc(CNc2oc(-c3ccco3)nc2S(=O)(=O)c2ccccc2)cc1,"inconclusive [inhibitor, single point]",–
COc1ccc(OC)c(NC(=O)NCCN2CCN(c3ccccc3)CC2)c1,"inconclusive [inhibitor, single point]",–
CCC(O)c1nc2ccccc2n1Cc1cccc(Cl)c1 (configuration not stated),"inconclusive [inhibitor, single point]",–
Clc1ccc(-c2cc3ccccc3nc2N2CCOCC2)cc1,"inconclusive [inhibitor, single point]",–
Cc1sc2nc(CN3CCCCC3)nc(Nc3ccc4c(c3)OCCO4)c2c1C,inactive,–
O=C(NCc1cccnc1)c1ccc(COc2ccccc2Cl)cc1,"inconclusive [inhibitor, single point]",–
CN(C)c1nc(C#N)nc(N2CCOCC2)n1,"inconclusive [inhibitor, single point]",inconclusive: -36% [inhibitor]
COc1ccc(C(CNC(=O)COc2ccc(C)c(C)c2)N2CCCCC2)cc1 (configuration not stated),active: 23.1 µM,–
CNC(=O)OCc1nc(SC2CCCCO2)n(C)c1COC(=O)NC (configuration not stated),"inconclusive [inhibitor, single point]",–
Cc1ccccc1CSc1cn(CCNC(=O)c2cccs2)c2ccccc12,active: 23.1 µM,–
COc1cc2ccccc2cc1C(=O)Nc1nnc(-c2ccncc2)o1,inactive,–
COC(=O)c1ccc(C2Nc3c(C)cc(C)cc3C3C=CCC32)cc1 (configuration not stated),"inconclusive [inhibitor, single point]",–
N/C(=N\c1nc(CSc2ccccn2)cc(=O)[nH]1)Nc1ccc(Cl)cc1Cl,"inconclusive [inhibitor, single point]",–
O=C1CCC(/C=C/c2ccccc2)=NN1Cc1ccc(F)cc1,inactive,–
Clc1cccc[n+]1CCCC[n+]1ccccc1Cl,inactive,–
O=C(NCCc1ccc2c(c1)OCCO2)c1ccccn1,"inconclusive [inhibitor, partial curve]",–
COc1ccc2ccccc2c1/C=N/NC(=O)c1cc(C)[nH]n1,active: 8.2 µM,–
O=C(CSc1nc(-c2cccs2)cc(C(F)(F)F)n1)Nc1cc(OCC(F)(F)F)cc([N+](=O)[O-])c1,"inconclusive [inhibitor, single point]",–
CCc1cc(=O)n2[nH]c(-c3ccccc3)c(-c3ccccc3)c2n1,"inconclusive [inhibitor, single point]",–
CCN(Cc1ccc(OC)c(F)c1)C(C)C(=O)Nc1ccc(S(=O)(=O)N2CCCC2)cc1 (configuration not stated),"inconclusive [inhibitor, single point]",–
O=C(Nc1ccc2c(c1)OCCO2)C(C1CC1)n1c(=O)c(-c2cc3ccccc3[nH]2)nc2ccccc21 (configuration not stated),"inconclusive [inhibitor, single point]",–
COCCCN1C(=O)N(c2ccccc2)C(=O)C1CC(=O)Nc1ccc(F)cc1 (configuration not stated),–,inconclusive: -35.7% [inhibitor]
COc1ccc(CNC(=O)c2ccc3ccccc3n2)cc1OC,"inconclusive [inhibitor, single point]",–
